From PubChem BioAssay AID1745853 (National Center for Advancing Translational Sciences (NCATS), 2022)
The list shows a part of the results. Shown are side measurements of this screen, not its main read-out; they come without a call.

Tests used:
Experiment in all cases: Primary Screen for Target Class Profiling of Small Molecule Inhibitors of Methyltransferases
[1] = target: Glycine N-methyltransferase (Homo sapiens) (UniProt Q14749); settings: purified enzyme, MTase-Glo SAH luminescence; measured here: GNMT inhibition; at 40 µM; stronger effect = lower value
Method in brief: (§1)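 Each enzyme was assayed with SAM and its substrate. SAH formation detected by MTase-Glo luminescence; single-point 40 uM screen[…].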

[2] = target: Guanidinoacetate N-methyltransferase (Homo sapiens) (UniProt Q14353); settings: purified enzyme, MTase-Glo SAH luminescence; measured here: GAMT inhibition; at 40 µM; stronger effect = lower value
Method in brief: as §1

[3] = target: Histamine N-methyltransferase (Homo sapiens) (UniProt P50135); settings: purified enzyme, MTase-Glo SAH luminescence; measured here: HNMT inhibition; at 40 µM; stronger effect = lower value
Method in brief: as §1

[4] = target: Nicotinamide N-methyltransferase (Homo sapiens) (UniProt P40261); settings: purified enzyme, MTase-Glo SAH luminescence; measured here: NNMT inhibition; at 40 µM; stronger effect = lower value
Method in brief: as §1

[5] = target: Phenylethanolamine N-methyltransferase (Homo sapiens) (UniProt P11086); settings: purified enzyme, MTase-Glo SAH luminescence; measured here: PNMT inhibition; at 40 µM; stronger effect = lower value
Method in brief: as §1
% is scaled to controls: 0 for no effect and ±100 for the full control effect.

SMILES | activity change, negative = inhibition [1] [%] | activity change, negative = inhibition [2] [%] | activity change, negative = inhibition [3] [%] | activity change, negative = inhibition [4] [%] | activity change, negative = inhibition [5] [%]
CC(C)(C)c1cc2n(n1)CC(C)(C(=O)NC1CCCCC1)N(Cc1ccccc1)C2=O (stereo not given) | -2.06 | -10.3 | 5.85 | -8.23 | -3.06
C=C1C(=O)O[C@@H]2/C=C(\C)CC/C=C(\C(=O)O[C@@H]3O[C@H](CO)[C@@H](O)[C@H](O)[C@H]3O)CC[C@@H]12 | -4.34 | -14.5 | 2.24 | -17.8 | -8.83
COc1ccc(CCN2Cc3cc(NC(=O)Cc4cccs4)ccc3OCC2=O)cc1 | -9.09 | -3.31 | -5.59 | -3.25 | -7.84
Cc1ccc(CNC(=O)C2(C)Cn3cnc(C(=O)Nc4ccccc4C)c3C(=O)N2C2CC2)cc1 (stereo not given) | -3.89 | -1.6 | 1.17 | -7.79 | -1.66
COc1ccc(CN2C(=O)c3ccc(-c4ccccc4)n3CC2(C)C(=O)NC2CCCCC2)cc1 (stereo not given) | 4.36 | 0 | 7.66 | 2.12 | 5.55
Cc1cc(CNC(=O)[C@@H]2CCC[C@@H](NC(=O)C3CCOCC3)CN(C)C(=O)C2)no1 | -4.54 | -6.99 | -1.27 | -7.41 | -7.2
CCCCNC(=O)CCc1nnc2n(Cc3ccccc3Cl)c(=O)c3ccccc3n12 | -5.98 | 1.58 | 3.25 | 0.447 | -3.17
COC(=O)[C@H]1CCCN1C(=O)[C@@H]1C[C@H](NC(=O)Nc2ccc(F)cc2F)CN1C(=O)CSC | -2.67 | -1.06 | 0.303 | 1.44 | -2.3
O=c1c2nc(Nc3ccc(C(F)(F)F)cc3)ccc2ncn1Cc1ccccn1 | -20.4 | -12.7 | -16.1 | -20.7 | -1.71
O=C1Nc2ccccc2C12CN([S+](=O)([O-])c1ccccc1)C2 | -10 | -9.7 | -6.12 | -12.2 | -13.6
CCCn1c(=O)c2ccc(C(=O)NC3CCCC3)cc2n2c(SCC(=O)NC(C)C)nnc12 | 12.6 | 0 | 13.3 | 14 | 12.6
COc1ccc(CCNC(=O)c2nnn3cc(C)[nH]c(=O)c23)cc1OC | -13.5 | 0.419 | 5.48 | 6.72 | 6.75
Cc1ccc(NC(=O)Cn2nc3n(CCc4ccccc4)c(=O)c4ccccc4n3c2=O)c(C)c1 | 4.95 | 0.769 | 6.49 | 7.68 | 4.05
COCCCN1C(=O)c2nc3ccccc3n2CC1(C)C(=O)NC1CCCCC1 (stereo not given) | 5.54 | 7.75 | 8.38 | 7.12 | 0.24
Cn1cc(-c2c[nH]c3ncnc(N4CCOCC4)c23)cn1 | -8.62 | -6.99 | -10.7 | -34.7 | -16
Cc1ccc(CNC(=O)CCn2ccc3cc(S(=O)(=O)N4CCCCC4)ccc32)o1 | -0.113 | 4.25 | -2.9 | 0.507 | -2.57
CN(Cc1cnn(C)c1)C(=O)c1csc2nc(-c3cccc(C(F)(F)F)c3)cn12 | -6.37 | -5.51 | -2.81 | -4.86 | 1.03
O=C1N(c2ccccc2)c2ccccc2C1(Cc1ccncc1)Cc1ccncc1 | 2.04 | 9.91 | 10.1 | -15.3 | -1.46
COc1ccc(C[C@H](NC(=O)[C@@H]2C[C@H](NC(=O)Nc3ccc(F)cc3F)CN2C(=O)CC(C)(C)C)C(N)=O)cc1 | -0.396 | 0.347 | -0.561 | -3.95 | -4.7
CCCn1c(=O)c2ccc(C(=O)NC(C)C)cc2n2c(SCC(=O)Nc3ccccc3F)nnc12 | -0.64 | 2.46 | 2.54 | -5.55 | -1.57

SMILES | activity change, negative = inhibition [1] [%] | activity change, negative = inhibition [2] [%] | activity change, negative = inhibition [3] [%] | activity change, negative = inhibition [4] [%] | activity change, negative = inhibition [5] [%]
COC(=O)C[C@H]1[C@]2(C)C3=C(C)[C@H](c4ccoc4)C[C@H]3O[C@@H]2[C@H](O)C2[C@](C)(C(=O)OC)C=CC(=O)[C@@]21C (stereo not given in full) | 0 | 0.172 | 1.56 | -12.1 | 3.36
CCC(=O)NCC1Cn2cccc2C(=O)N1Cc1ccccc1 (stereo not given) | 0.618 | 4.19 | 3.39 | 2.95 | 1.98
Cc1cc2c(cc3n2CC(C)(C(=O)NC2CCCCC2)N(Cc2cccs2)C3=O)o1 (stereo not given) | -9.38 | 5.65 | -7.72 | -23.1 | -4.93
CCCn1c(=O)c2[nH]c(-c3ccc(S(=O)(=O)O)cc3)nc2n(CCC)c1=O | -17.3 | 5.54 | -0.168 | -6.23 | 6.19
O=C(CCc1nnc2n(Cc3ccccc3)c(=O)c3ccccc3n12)N1CCN(c2ccccc2F)CC1 | -3.31 | 3.53 | 2.91 | -6.32 | -2.21
Cc1ccc2n1CCN(C(=O)Nc1ccc3c(c1)OCCO3)C2C(C)C (stereo not given) | -2.89 | 3.46 | -6.08 | -9.03 | -5.69
Cc1cc(-n2c(=O)[nH]c(=O)n(C)c2=O)ccc1Oc1ccc(SC(F)(F)F)cc1 | -0.895 | -0.684 | 11.3 | -29.6 | -10.7
COc1ccccc1N1CCCc2ncc(C(=O)N3CCN(C(C)=O)CC3)cc21 | -14.5 | -8.34 | -5.43 | -9.86 | -14.3
COc1ccccc1N1CCN([C@@H]2[C@H](O)[C@H](CO)O[C@@H]2CN(Cc2ccc(F)cc2)Cc2ccc(F)cc2)CC1 | -5.78 | -2.08 | -1.54 | -8.05 | 0.691
CN(Cc1ccc(F)cc1)C(=O)c1cccc(Cl)c1 | -6.82 | -11.5 | -2.88 | -21.9 | -11.3
COc1ccccc1C(C)N(C)C(=O)c1cccc(CCC(C)(C)O)c1 (stereo not given) | -1.42 | -1.6 | -0.104 | -6.58 | 0.51
CN1C[C@@H]2CC[C@H](CC1=O)N2C(=O)c1cnn2cc(CCO)cnc12 | -3.54 | -6.96 | -2.82 | -6.01 | -9.3
CCCSCCCN1C(=O)c2cc(-c3ccc(OC)cc3)nn2CC1(C)C(=O)NCc1ccccc1 (stereo not given) | -1.57 | 0 | -0.554 | 1.79 | -2.93
O=C(NCCN1CCCC1)c1c(OCC2CC2)cc(=O)n2c1CCOCC2 | -5.8 | -9.96 | -4.92 | -15.2 | -10.3
Cc1cc(NS(=O)(=O)c2ccc3c(c2)n(C)c(=O)n3C)ccc1Br | 4.2 | 0 | 5.29 | -8.59 | 1.53
CCc1nc(-c2ccc(OC3CCN(S(=O)(=O)Cc4ccccc4)C3)cc2)no1 (stereo not given) | -4.78 | -4.25 | -3.19 | -10.5 | -6.54
O=C(CCCc1nnc2n3nc(-c4ccccc4)nc3c3ccccc3n12)NCc1ccc(F)cc1 | -5.88 | 4.49 | -1.05 | 3.76 | -7.56
Cn1ccnc1CN1C(=O)CO[C@H]2CN(C3CCCCC3)C[C@H]21 | -0.142 | -0.841 | 0.453 | 0.817 | 1.53
C=C1CC2C3(C)C(O)CC(=O)C(C)(C)C3C(OC(C)=O)C(OC(C)=O)C2(C)C2C(=O)OC(C)(C(=O)OC)C(=O)C12C (stereo not given) | 3.88 | 5.18 | 7.38 | -8.76 | 3.83
Cc1ccc(CN2C(=O)c3nc4ccccc4n3CC2(C)C(=O)NC2CCCC2)cc1 (stereo not given) | 2.21 | 0 | 4.59 | 10 | 2.46

SMILES | activity change, negative = inhibition [1] [%] | activity change, negative = inhibition [2] [%] | activity change, negative = inhibition [3] [%] | activity change, negative = inhibition [4] [%] | activity change, negative = inhibition [5] [%]
Cc1ccc(CNC(=O)Cn2ccc3cc(S(=O)(=O)N4CCCC4)ccc32)cc1 | -1.74 | -0.468 | -3.68 | -7.62 | -4.41
C=CC(=O)Nc1ccc2ncnc(Nc3ccc(OCc4cccc(F)c4)c(Cl)c3)c2c1 | 0.295 | -1.06 | 5.71 | -13.7 | 5.19
O=C(Cn1nc2n(CCc3ccccc3)c(=O)c3ccccc3n2c1=O)NCc1ccccc1Cl | 5.85 | 2 | 6.04 | 6.47 | 4.82
CC(C)CCNC(=O)C1(C)Cn2c(cc3ccccc32)C(=O)N1Cc1ccc2c(c1)OCO2 (stereo not given) | 2.54 | 3.78 | 5.13 | -1.37 | 0.669
CC(C)CNC(=O)c1ccc2c(=O)n(Cc3ccccc3)c3nn(Cc4ccc(Cl)cc4)c(=O)n3c2c1 | -0.216 | 4.72 | 2.47 | -1.06 | -0.276
Cc1cc(-c2cc(O)ccc2Cl)cc2nnc(Nc3ccc(OCCN4CCCC4)cc3)nc12 | -2.28 | -6.01 | -30.3 | -26.5 | -5.98
CC(C)OCCCn1c(=O)c2ccc(Cl)cc2n2c(SCc3cccc(F)c3)nnc12 | 2.46 | 1.44 | 5.88 | -4.88 | 0.206
NS(=O)(=O)c1ccc(-n2nc(C3CCOC3)nc2C2CCC2)cc1 (stereo not given) | 2.6 | 0.802 | -0.514 | 4.48 | -2.76
CCOC(=O)c1cc2n(n1)CC(C)(C(=O)NCCC(C)C)N(c1cccc(Cl)c1C)C2=O (stereo not given) | -7.95 | 0.523 | -1.55 | 3.7 | -3.15
CCOC(=O)CSc1nc2c(sc3ccccc32)c(=O)n1CCCN1CCCC1 | -12.1 | -6.2 | -25.2 | -26.2 | -9.61
CC(C)OCCCNC(=O)CCc1nnc2n(CCCOC(C)C)c(=O)c3ccccc3n12 | -1.22 | 20.4 | 9.34 | 6.45 | 2.58
CC(=O)N1CCCN(c2ncnc3c2CN(C2CCCCC2)C(=O)CN3C)CC1 | -2.53 | -0.785 | 0.535 | -6.75 | -2.72
Cc1ccc(C)c(N2CCN(C(=O)CCc3nnc4n(CCCOC(C)C)c(=O)c5ccccc5n34)CC2)c1 | -19.2 | 0 | -3.23 | -11.1 | -4.62
CN1CCN(C(=O)c2cncc(N[C@H]3C[C@@H]4OCC[C@H]34)n2)CC1 | -3.22 | -5.58 | -4.22 | -2.56 | -18.3
CN(C)CC/C=C1\c2ccccc2COc2ccccc21 | 1.58 | 15.6 | -21.4 | -5.7 | 2.09
COc1cc(O)cc(C)c1C(=O)O[C@H]1[C@@H](O)[C@@H](n2ccc(=O)[nH]c2=O)O[C@@H]1CO | -0.035 | -3.84 | -0.892 | -14.6 | 1.36
COC(=O)c1ccc(NCC2=CC(C)(C)COc3ccc(OC)cc32)cc1 | -6.21 | -10.3 | -6.14 | -10.8 | -11.6
COC(=O)C(Cc1ccccc1)NC(=O)c1ccccc1 (stereo not given) | 0 | 8.14 | 9.24 | -5.29 | 4.51
C[C@H]1CC[C@@]2(OC1)O[C@H]1CC3[C@@H]4CC[C@@H]5C[C@@H](O[C@@H]6O[C@H](CO)[C@@H](O[C@@H]7O[C@@H](C)[C@H](O)[C@@H](O)[C@H]7O)[C@H](O)[C@H]6O[C@@H]6O[C@H](CO)[C@@H](O)[C@H](O)[C@H]6O)CC[C@]5(C)C4CC[C@]3(C)[C@H]1[C@@H]2C (stereo not given in full) | 0.295 | 12.9 | 9.42 | 0.964 | -1.7
